# Test results published in the supplement of paper PMC8728848.
# This is one part of the list.
# B1: Gal 8 (Homo sapiens) (protein)
# chain: MLSLNNLQNIIYNPVIPYVGTIPDQLDPGTLIVICGHVPSDADRFQVDLQNGSSVKPRADVAFHFNPRFKRAGCIVCNTLINEKWGREEITYDTPFKREKSFEIVIMVLKDKFQVAVNGKHTLLYGHRIGPEKIDTLGIYGKVNIHSIGFSFSSDLQSTQASSLELTEISRENVPKSGTPQLQTVSPSWDLQGHGSETFCSVLWTRVFLEIAFCRPIGLTVASFQSLPFAARLNTPMGPGRTVVVKGEVNANAKSFNVDLLAGKSKDIALHLNPRLNIKAFVRNSFLQESWGEEERNITSFPFSPGMYFEMIIYCDVREFKVAVNGVHSLEYKHRFKELSSIDTLEINGDIHLLEVRSW
# Key:
# Experiment in all cases: glycan array binding signal (z-score within array); higher = stronger binding
# Settings in all cases: glycan notation: IUPAC condensed, linker removed
# [1] = molecular target: Gal(b1-4)GlcNAc(b1-3)Gal(b1-4)GlcNAc(b1-3)Gal(b1-4)GlcNAc(b1-3)Gal(b1-4)GlcNAc(b1-3)Gal(b1-4)GlcNAc(b1-2)Man(a1-3)[Gal(b1-4)GlcNAc(b1-3)Gal(b1-4)GlcNAc(b1-3)Gal(b1-4)GlcNAc(b1-3)Gal(b1-4)GlcNAc(b1-3)Gal(b1-4)GlcNAc(b1-2)Man(a1-6)]Man(b1-4)GlcNAc(b1-4)[Fuc(a1-6)]GlcNAc
# Outline: (§1)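 Glycan array data were curated from 3228 arrays in the Consortium for Functional Glycomics database and kept only where the protein sequence was available. Glycan names were converted to IUPAC-condensed notation, and columns mapping to the same glycan were averaged. The binding signal is a within-array Z-score, averaged across arrays of the same protein sequence at different concentrations or buffers and across linkers. Negative Z-scores can be read as non-binding.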
# [2] = molecular target: Gal(b1-4)GlcNAc(b1-3)Gal(b1-4)GlcNAc(b1-3)Gal(b1-4)GlcNAc(b1-3)Gal(b1-4)GlcNAc(b1-3)Gal(b1-4)GlcNAc(b1-2)[Gal(b1-4)GlcNAc(b1-3)Gal(b1-4)GlcNAc(b1-3)Gal(b1-4)GlcNAc(b1-3)Gal(b1-4)GlcNAc(b1-3)Gal(b1-4)GlcNAc(b1-6)]Man(a1-6)[Gal(b1-4)GlcNAc(b1-3)Gal(b1-4)GlcNAc(b1-3)Gal(b1-4)GlcNAc(b1-3)Gal(b1-4)GlcNAc(b1-3)Gal(b1-4)GlcNAc(b1-2)Man(a1-3)]Man(b1-4)GlcNAc(b1-4)[Fuc(a1-6)]GlcNAc
# Outline: as §1
# [3] = molecular target: Gal(b1-4)GlcNAc(b1-3)Gal(b1-4)GlcNAc(b1-3)Gal(b1-4)GlcNAc(b1-3)Gal(b1-4)GlcNAc(b1-3)Gal(b1-4)GlcNAc(b1-3)Gal(b1-4)GlcNAc(b1-2)Man(a1-3)[Gal(b1-4)GlcNAc(b1-3)Gal(b1-4)GlcNAc(b1-3)Gal(b1-4)GlcNAc(b1-3)Gal(b1-4)GlcNAc(b1-3)Gal(b1-4)GlcNAc(b1-3)Gal(b1-4)GlcNAc(b1-2)Man(a1-6)]Man(b1-4)GlcNAc(b1-4)GlcNAc
# Outline: as §1
# [4] = molecular target: Gal(b1-4)GlcNAc(b1-3)Gal(b1-4)GlcNAc(b1-3)GalNAc
# Outline: as §1
# [5] = molecular target: Gal(b1-4)GlcNAc(b1-3)Gal(b1-4)GlcNAc(b1-3)[Gal(b1-4)GlcNAc(b1-3)Gal(b1-4)GlcNAc(b1-6)]GalNAc
# Outline: as §1
# [6] = molecular target: Gal(b1-4)GlcNAc(b1-3)Gal(b1-4)GlcNAc(b1-6)[Gal(b1-3)]GalNAc
# Outline: as §1
# [7] = molecular target: Gal(b1-4)GlcNAc(b1-3)Gal(b1-4)[Fuc(a1-3)]GlcNAc(b1-3)Gal(b1-4)[Fuc(a1-3)]GlcNAc
# Outline: as §1
# [8] = molecular target: Gal(b1-4)GlcNAc(b1-3)GalNAc
# Outline: as §1
# [9] = molecular target: Gal(b1-4)GlcNAc(b1-3)[Fuc(a1-3)GlcNAc(b1-6)]Gal(b1-4)Glc
# Outline: as §1
# [10] = molecular target: Gal(b1-4)GlcNAc(b1-3)[Gal(b1-4)GlcNAc(b1-6)]Gal(b1-4)GlcNAc
# Outline: as §1
# [11] = molecular target: Gal(b1-4)GlcNAc(b1-3)[Gal(b1-4)GlcNAc(b1-6)]GalNAc
# Outline: as §1
# [12] = molecular target: Gal(b1-4)GlcNAc(b1-3)[GlcNAc(b1-6)]Gal(b1-4)GlcNAc
# Outline: as §1
# [13] = molecular target: Gal(b1-4)GlcNAc(b1-6)Gal(b1-4)GlcNAc
# Outline: as §1
# [14] = molecular target: Gal(b1-4)GlcNAc(b1-6)Gal(b1-4)GlcNAc(b1-6)GalNAc
# Outline: as §1
# [15] = molecular target: Gal(b1-4)GlcNAc(b1-6)GalNAc
# Outline: as §1
# [16] = molecular target: Gal(b1-4)GlcNAc(b1-6)[Gal(b1-3)]GalNAc
# Outline: as §1
# [17] = molecular target: Gal(b1-4)GlcNAc(b1-6)[Gal(b1-4)GlcNAc(b1-3)]GalNAc
# Outline: as §1
# Gal(b1-4)GlcNAc6P = molecular target: Gal(b1-4)GlcNAc6P
# Outline: as §1
# Gal(b1-6)Gal = molecular target: Gal(b1-6)Gal
# Outline: as §1
# Gal3S(b1-3)GalNAc = molecular target: Gal3S(b1-3)GalNAc
# Outline: as §1
# Gal3S(b1-3)GlcNAc = molecular target: Gal3S(b1-3)GlcNAc
# Outline: as §1
# [18] = molecular target: Gal3S(b1-3)[Fuc(a1-4)]GlcNAc
# Outline: as §1
# Gal3S(b1-4)Glc = molecular target: Gal3S(b1-4)Glc
# Outline: as §1
# Gal3S(b1-4)Glc6S = molecular target: Gal3S(b1-4)Glc6S
# Outline: as §1
# Gal3S(b1-4)GlcNAc = molecular target: Gal3S(b1-4)GlcNAc
# Outline: as §1
# Gal3S(b1-4)GlcNAc6S = molecular target: Gal3S(b1-4)GlcNAc6S
# Outline: as §1
# [19] = molecular target: Gal3S(b1-4)[Fuc(a1-3)]Glc
# Outline: as §1
# [20] = molecular target: Gal3S(b1-4)[Fuc(a1-3)]Glc6S
# Outline: as §1
# [21] = molecular target: Gal3S(b1-4)[Fuc(a1-3)]GlcNAc
# Outline: as §1
# [22] = molecular target: Gal3S(b1-4)[Fuc(a1-3)]GlcNAc6S
# Outline: as §1
# Gal3S4S(b1-4)GlcNAc = molecular target: Gal3S4S(b1-4)GlcNAc
# Outline: as §1
# Gal3S6S(b1-4)GlcNAc = molecular target: Gal3S6S(b1-4)GlcNAc
# Outline: as §1
# Gal3S6S(b1-4)GlcNAc6S = molecular target: Gal3S6S(b1-4)GlcNAc6S
# Outline: as §1
# Gal4S(b1-4)GlcNAc = molecular target: Gal4S(b1-4)GlcNAc
# Outline: as §1
# Gal4S6S(b1-4)GlcNAc = molecular target: Gal4S6S(b1-4)GlcNAc
# Outline: as §1
# Gal6P(b1-4)GlcNAc = molecular target: Gal6P(b1-4)GlcNAc
# Outline: as §1
# Gal6S(b1-3)GlcNAc = molecular target: Gal6S(b1-3)GlcNAc
# Outline: as §1
binder,measurement,setting,value
B1,glycan array binding signal (z-score),[1],2.93
same,glycan array binding signal (z-score),[2],5.3
same,glycan array binding signal (z-score),[3],5.33
same,glycan array binding signal (z-score),[4],-0.13
same,glycan array binding signal (z-score),[5],-0.115
same,glycan array binding signal (z-score),[6],0.136
same,glycan array binding signal (z-score),[7],-0.355
same,glycan array binding signal (z-score),[8],-0.367
same,glycan array binding signal (z-score),[9],-0.355
same,glycan array binding signal (z-score),[10],-0.358
same,glycan array binding signal (z-score),[11],-0.685
same,glycan array binding signal (z-score),[12],-0.298
same,glycan array binding signal (z-score),[13],-0.338
same,glycan array binding signal (z-score),[14],-0.374
same,glycan array binding signal (z-score),[15],-0.375
same,glycan array binding signal (z-score),[16],-0.305
same,glycan array binding signal (z-score),[17],-0.356
same,glycan array binding signal (z-score),Gal(b1-4)GlcNAc6P,-0.356
same,glycan array binding signal (z-score),Gal(b1-6)Gal,-0.358
same,glycan array binding signal (z-score),Gal3S(b1-3)GalNAc,0.661
same,glycan array binding signal (z-score),Gal3S(b1-3)GlcNAc,0.409
same,glycan array binding signal (z-score),[18],-0.363
same,glycan array binding signal (z-score),Gal3S(b1-4)Glc,0.757
same,glycan array binding signal (z-score),Gal3S(b1-4)Glc6S,3.83
same,glycan array binding signal (z-score),Gal3S(b1-4)GlcNAc,-0.039
same,glycan array binding signal (z-score),Gal3S(b1-4)GlcNAc6S,1.7
same,glycan array binding signal (z-score),[19],-0.351
same,glycan array binding signal (z-score),[20],-0.347
same,glycan array binding signal (z-score),[21],-0.357
same,glycan array binding signal (z-score),[22],-0.145
same,glycan array binding signal (z-score),Gal3S4S(b1-4)GlcNAc,2.1
same,glycan array binding signal (z-score),Gal3S6S(b1-4)GlcNAc,-0.352
same,glycan array binding signal (z-score),Gal3S6S(b1-4)GlcNAc6S,0.048
same,glycan array binding signal (z-score),Gal4S(b1-4)GlcNAc,-0.362
same,glycan array binding signal (z-score),Gal4S6S(b1-4)GlcNAc,-0.26
same,glycan array binding signal (z-score),Gal6P(b1-4)GlcNAc,-0.354
same,glycan array binding signal (z-score),Gal6S(b1-3)GlcNAc,-0.354
